Measurements from PubChem BioAssay (Tox21).
Values joined by “and” are separate entries in the source; they are usually repeats but may differ in a detail not shown here. Equal entries are not always repeated. This list was built around the results that the source calls inconclusive (neither active nor inactive); the mix of calls is not that of the screen. For some assays here: A potency beside an inconclusive call is a rough fit, not a confirmed value. The source holds several records for some structures; these can differ, active in one and inactive in another. Active and inactive are the calls of the source. Unless noted, calls come from the whole dose curve; as a rule, active = well fitted curve in the direction sought with a large enough effect in the repeat runs; inconclusive = weak or mixed curves; inactive = no such curve, though single readings can be large; an effect the other way counts as inactive or inconclusive.

Assays:
[1] = qHTS assay for small molecule disruptors of the mitochondrial membrane potential - cell viability (AID 720634; calls by dose curve; note: nearly all actives have a fitted effect of over 20% in size; note: potency is the fitted concentration of half-maximal effect)
Summary of the method: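 Cytotoxicity was quantified from ATP content by CellTiter-Glo luminescence in the same wells as the MMP dye read-out. HepG2 (2,000 cells/well) were plated overnight and exposed to compounds for 1 hr at 37 C.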

[2] = qHTS assay for small molecule disruptors of the mitochondrial membrane potential (AID 720635); conditions: HepG2 mitochondrial membrane potential, Mito-MPS dye ratio; note: potency is the fitted concentration of half-maximal effect; for ratio activity, negative = MMP loss: % is set by controls: 0 for no effect and ±100 for the full control effect
Summary of the method: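 HepG2 cells (2,000/well) attached overnight at 37C, then took compound for 1 hr at 37C, 5% CO2. Mito-MPS dye was added for 30 min; fluorescence was read at 490/535 nm (monomers) and 540/590 nm (aggregates).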

[3] = target: Glucocorticoid receptor (Homo sapiens) (UniProt P04150); experiment: qHTS assay to identify small molecule antagonists of the glucocorticoid receptor (GR) signaling pathway (AID 720692; active = well fitted inhibition curve with a large enough effect in the signal ratio in the repeat runs, not every such curve was filed as active; inconclusive = weak or mixed curves, or effect the other way; inactive = no such curve, though single readings can be large or run the other way; the % refers to the signal ratio; note: potency is the fitted concentration of half-maximal effect; for activity change, negative = inhibition: % is set by controls: 0 for no effect and ±100 for the full control effect); conditions: GR-bla HeLa, beta-lactamase FRET ratio, dexamethasone-stimulated, 18 h
UniProt P04150, sequence (P04150 whole entry, looked up): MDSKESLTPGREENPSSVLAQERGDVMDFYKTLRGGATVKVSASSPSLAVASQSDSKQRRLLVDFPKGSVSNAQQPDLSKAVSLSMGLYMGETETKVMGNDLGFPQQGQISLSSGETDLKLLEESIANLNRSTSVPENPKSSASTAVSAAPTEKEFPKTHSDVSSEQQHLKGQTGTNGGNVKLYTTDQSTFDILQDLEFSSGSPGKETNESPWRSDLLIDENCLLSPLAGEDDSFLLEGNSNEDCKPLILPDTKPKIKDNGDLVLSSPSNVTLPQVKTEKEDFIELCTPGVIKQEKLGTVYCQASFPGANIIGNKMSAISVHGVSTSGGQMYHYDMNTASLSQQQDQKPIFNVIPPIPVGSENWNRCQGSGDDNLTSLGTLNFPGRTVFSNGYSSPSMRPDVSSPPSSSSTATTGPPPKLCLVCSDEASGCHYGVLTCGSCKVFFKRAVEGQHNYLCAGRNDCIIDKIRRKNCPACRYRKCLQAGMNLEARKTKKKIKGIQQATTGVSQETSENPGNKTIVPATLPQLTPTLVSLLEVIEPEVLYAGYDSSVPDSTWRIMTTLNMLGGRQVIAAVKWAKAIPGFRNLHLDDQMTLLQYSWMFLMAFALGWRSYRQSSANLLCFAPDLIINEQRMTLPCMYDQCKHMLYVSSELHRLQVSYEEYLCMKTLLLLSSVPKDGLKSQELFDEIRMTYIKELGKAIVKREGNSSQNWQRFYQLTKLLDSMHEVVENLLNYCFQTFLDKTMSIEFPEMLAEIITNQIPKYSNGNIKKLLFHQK
Summary of the method: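 Inhibition of dexamethasone-driven (5 nM final) beta-lactamase expression was measured in GRE-reporter HeLa cells over 18 h at 37C. Fluorescence was read after 2 h with the B/G FRET substrate at room temperature.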

[4] = target: Glucocorticoid receptor (Homo sapiens) (UniProt P04150); experiment: qHTS assay to identify small molecule agonists of the glucocorticoid receptor (GR) signaling pathway (AID 720691; active = well fitted activation curve with a large enough effect in the signal ratio in the repeat runs, not every such curve was filed as active; inconclusive = weak or mixed curves, or effect the other way; inactive = no such curve, though single readings can be large or run the other way; the % refers to the signal ratio; note: potency is the fitted concentration of half-maximal effect); conditions: GR-bla HeLa, beta-lactamase reporter ratio, 18 h; activation: at 62.4 µM (top of the series) unless noted
Summary of the method: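 Agonist-mode qHTS in HeLa cells stably expressing a glucocorticoid-response-element beta-lactamase reporter. Fluorescence intensity read with FRET substrate (2 h, room temperature) after 18 h compound treatment at 37 C.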

[5] = qHTS assay for small molecules that induce genotoxicity in human embryonic kidney cells expressing luciferase-tagged ATAD5 - cell viability (AID 651634; calls by dose curve; note: potency is the fitted concentration of half-maximal effect; nearly all actives have a fitted effect of over 25% in size)
Summary of the method: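 Cytotoxicity counter-readout: after 15.5 hr compound treatment at 37C, live-cell protease activity in ATAD5-luciferase HEK293T cells measured by CellTiter-Fluor fluorescence, 30 min development at 37C.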

[6] = qHTS assay to test for compound auto fluorescence at 590 nm (red) in HepG2 cells (AID 720674); note: % is set by controls: 0 for no effect and ±100 for the full control effect
Summary of the method: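 Compound auto-fluorescence is scored relative to Rose Bengal sodium, measured at 540/590 nm in live HepG2 cultures after 1 hr compound contact (37 C, 5% CO2).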

[7] = qHTS assay to test for compound auto fluorescence at 535 nm (green) in HepG2 cells (AID 720675); note: potency is the fitted concentration of half-maximal effect
[8] = qHTS assay to test for compound auto fluorescence at 460 nm (blue) in HEK293 cells (AID 720678); note: potency is the fitted concentration of half-maximal effect
Summary of the method: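 Measured: blue fluorescence (Ex 405/Em 460 nm) of compound-treated HEK293 cells, incubated overnight at 37C with 5% CO2 and scaled to triamterene equivalents.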

[9] = qHTS assay to test for compound auto fluorescence at 535 nm (green) in HEK293 cells (AID 720680); conditions: green autofluorescence 485/535 nm; note: potency is the fitted concentration of half-maximal effect
[10] = qHTS assay to test for compound auto fluorescence at 535 nm (green) in HEK293 cell free culture (AID 720682); conditions: cell-free medium, green autofluorescence 485/535 nm; note: potency is the fitted concentration of half-maximal effect
Summary of the method: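 Fluorescein serves as the green reference fluorophore; each compound's intrinsic emission at 535 nm (excitation 485 nm) is reported as an equivalent amount of that dye, measured in serum-containing DMEM without cells.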

[11] = ratio activity, negative = MMP loss: at 83.2 µM (top of the series) unless noted
[12] = activity change, negative = inhibition: at 58.5 µM (top of the series) unless noted
Tags give direction and shape of the fitted curve or compound fluorescence and quenching.

Question: With `CC(C)COC(=O)c1ccccc1O` as the molecule, how does the Potency [1] read?
Answer: inactive

Question: And the Potency [2, 11]?
Answer: inconclusive: 61.1 µM [rising, partial curve, poor fit]

Question: And the Potency [3, 12]?
Answer: inactive

Question: With `CCOC(=O)c1nc(C(Cl)(Cl)Cl)n(-c2ccc(Cl)cc2Cl)n1` as the molecule, how does the Potency [1] read?
Answer: inconclusive: 68.6 µM [cytotoxic]

Question: What about the ratio activity, negative = MMP loss [2, 11] of the same molecule?
Answer: inconclusive: -31.4%

Question: What about the Potency [4] of the same molecule?
Answer: inconclusive: 61.6 µM [single point]

Question: And the Potency [3, 12]?
Answer: inconclusive: 61.6 µM [cytotoxic, single point]

Question: Which results are given for `C=C1C(=C/C=C2\CCC[C@]3(C)[C@@H]([C@H](C)/C=C/[C@@H](O)C4CC4)CC[C@@H]23)C[C@@H](O)C[C@@H]1O`?
Answer: Potency [5]: inconclusive: 26.6 µM [falling, partial curve, poor fit]; Potency [2, 11]: active: 22.1 µM; Potency [3, 12]: inconclusive: 7.56 µM [rising, partial curve, poor fit]

Question: For `Cc1ccc(N)cc1S(=O)(=O)O`, which Potency [1] is on record?
Answer: inactive

Question: What about the ratio activity, negative = MMP loss [2, 11] of the same molecule?
Answer: inconclusive: 25.6%

Question: Which results are given for `CC(=O)C1(C)CC2=C(CCCC2(C)C)CC1C` (stereo unspecified)?
Answer: Potency [5]: inconclusive: 61.1 µM [falling, partial curve, poor fit]; activity change, negative = inhibition [3, 12]: inconclusive: 13%

Question: With `Clc1ccc2c(c1)CCc1cccnc1C2=C1CCNCC1` as the molecule, how does the Potency [5] read?
Answer: inconclusive: 10.6 µM [falling, partial curve, poor fit]

Question: And the Potency [2, 11]?
Answer: inconclusive: 29.8 µM [activator, partial curve]

Question: And the activity change, negative = inhibition [3, 12]?
Answer: inconclusive: -14%

Question: What does the source list for `Cc1ccc(N=Nc2c(O)c(C(=O)O)cc3ccccc23)c(S(=O)(=O)O)c1`?
Answer: Potency [5]: active: 11.8 µM; Potency [2, 11]: inconclusive: 26.5 µM [falling, partial curve]; Potency [3, 12]: inconclusive: 9.47 µM [inhibitor, partial curve]

Question: With `CC1(C)CC(=O)CC(C)(C)N1` as the molecule, how does the Potency [1] read?
Answer: inactive

Question: With `O=C(O)c1cc(N=Nc2ccc([N+](=O)[O-])cc2)ccc1O` as the molecule, how does the Potency [1] read?
Answer: inconclusive: 53.5 µM [cytotoxic, partial curve]

Question: What about the Potency [2, 11] of the same molecule?
Answer: active: 53.5 µM

Question: For `Cc1cc(C(C)(C)C)c(O)c(C)c1CC1=NCCN1`, which Potency [1] is on record?
Answer: inactive

Question: For `CCCCC(CC)COCC1CO1` (stereo unspecified), which Potency [1] is on record?
Answer: inactive

Question: And the Potency [2, 11]?
Answer: inactive

Question: And the Potency [3, 12]?
Answer: inactive

Question: Which results are given for `OCCN1CCN(CCCN2c3ccccc3Sc3ccc(C(F)(F)F)cc32)CC1`?
Answer: Potency [5]: inconclusive: 33.5 µM [falling, partial curve, poor fit]; Potency [2, 11]: inconclusive: 9.44 µM [activator]; activity change, negative = inhibition [3, 12]: inconclusive: -38.5%

Question: What does the source list for `CN(C)c1ccc(C(c2ccccc2)c2ccc(N(C)C)cc2)cc1`?
Answer: Potency [1]: inconclusive: 61.1 µM [cytotoxic, partial curve, poor fit]; Potency [2, 11]: inconclusive: 30.6 µM [fluorescent, partial curve]

Question: Which Potency [1] does the source give for `O=S(=O)(O)c1ccc2nc(-c3ccccc3)[nH]c2c1` here?
Answer: active: 9.44 µM and active: 26 µM

Question: What about the ratio activity, negative = MMP loss [2, 11] of the same molecule?
Answer: inconclusive: -2.37%

Question: For `CC(C)(C)CC(C)(C)N`, which Potency [1] is on record?
Answer: inactive

Question: And the Potency [2, 11]?
Answer: inactive

Question: With `C[C@]12CC[C@H]3[C@@H](CCC4=CC(=O)CC[C@@]43C)[C@@H]1CC[C@@H]2C(=O)CO` as the molecule, how does the Potency [1] read?
Answer: inconclusive: 54.5 µM [cytotoxic, partial curve, poor fit]

Question: What about the Potency [2, 11] of the same molecule?
Answer: inconclusive: 48.6 µM [fluorescent, partial curve, poor fit]

Question: What about the Potency [3, 12] of the same molecule?
Answer: active: 811 nM and active: 977 nM

Question: With `NC1CCCCC1N` (stereo unspecified) as the molecule, how does the Potency [5] read?
Answer: inconclusive: 68.6 µM [falling, partial curve, poor fit]

Question: And the Potency [3, 12]?
Answer: inactive

Question: What does the source list for `O=C(Oc1ccccc1)c1ccccc1O`?
Answer: Potency [5]: inconclusive: 34.4 µM [falling, partial curve, poor fit]; Potency [2, 11]: active: 54.5 µM; activity change, negative = inhibition [3, 12]: inconclusive: 8.02% [at 78.9 µM]

Question: With `COc1cc2c(c(OC)c1OC)-c1ccc(OC)c(=O)cc1[C@@H](NC(C)=O)CC2` as the molecule, how does the Potency [5] read?
Answer: active: 335 nM and active: 9.6 nM and active: 7.7 nM

Question: What about the Potency [2, 11] of the same molecule?
Answer: active: 3.35 µM and active: 1.52 µM and active: 1.37 µM

Question: And the Potency [3, 12]?
Answer: inconclusive: 379 nM [activator, full curve] and inconclusive: 68.4 nM [activator, full curve] and inconclusive: 30.9 nM [activator, full curve]

Question: With `CN1C(C(=O)Nc2ccccn2)=C(O)c2ccccc2S1(=O)=O` as the molecule, how does the activity change, negative = inhibition ([3]; at 27 µM (top of the series)) read?
Answer: inactive: -3.2%

Question: With `COc1cc(CNC(=O)CCCC/C=C/C(C)C)ccc1O` as the molecule, how does the activity change, negative = inhibition ([3]; at 58.5 µM (top of the series)) read?
Answer: inactive: -1.72%

Question: Which ratio activity, negative = MMP loss ([2]; at 95.3 µM (top of the series)) does the source give for `OC[C@H]1O[C@@H]2O[C@H]3[C@H](O)[C@@H](O)[C@@H](O[C@H]4[C@H](O)[C@@H](O)[C@@H](O[C@H]5[C@H](O)[C@@H](O)[C@@H](O[C@H]6[C@H](O)[C@@H](O)[C@@H](O[C@H]7[C@H](O)[C@@H](O)[C@@H](O[C@H]8[C@H](O)[C@@H](O)[C@@H](O[C@H]1[C@H](O)[C@H]2O)O[C@@H]8CO)O[C@@H]7CO)O[C@@H]6CO)O[C@@H]5CO)O[C@@H]4CO)O[C@@H]3CO` here?
Answer: inconclusive: 0.608%

Question: With `OC(CCl)CCl` as the molecule, how does the ratio activity, negative = MMP loss ([2]; at 95.3 µM (top of the series)) read?
Answer: inconclusive: -6.79%

Question: For `[Cl][Pt-2]([Cl])([Cl])[Cl]`, which Potency [6] is on record?
Answer: inactive

Question: Which Potency [7] does the source give for `Nc1ccc2cc3ccc(N)cc3nc2c1` here?
Answer: inconclusive: 7.94 µM [rising, partial curve, poor fit]

Question: What about the Potency [8] of the same molecule?
Answer: active: 12.6 µM [fluorescent] and inconclusive: 8.91 µM [fluorescent, partial curve]

Question: What about the Potency [9] of the same molecule?
Answer: inconclusive: 5.62 µM [fluorescent, partial curve, poor fit]

Question: And the Potency [10]?
Answer: active: 11.2 µM [fluorescent] and inconclusive: 5.62 µM [fluorescent, partial curve, poor fit]
